# Inconclusive means that the source gave no clear call. Such entries were picked first, then a sample of the others. No potency is given beside an inconclusive call; the fits are too rough. Activity calls are given as the source filed them. Calls follow the shape of the dose curve; as a rule, active = well fitted inhibition curve with a large enough effect; inconclusive = small, poorly fitted or top-dose-only effect; inactive = no such curve, though single readings can be large or run the other way.
# Biological target: Rap guanine nucleotide exchange factor 3 (Homo sapiens) (UniProt O95398)
# Assay: Confirmatory qHTS for antagonist of cAMP-regulated guanine nucleotide exchange factor 3 (EPAC1) (AID 1645880); also: nearly all actives have a fitted effect of over 55% in size;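 as to activity, negative = inhibition: plate controls were DMSO only for no effect and full effect of the ATA control for full effect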
# Conditions: EPAC1 Rap1B-BODIPY-GDP exchange, fluorescence; activity, negative = inhibition: at 115 µM (top of the series)
# Outline: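 Released BODIPY-GDP fluoresces less than Rap1-bound BODIPY-GDP; the signal is followed at 480/540 nm at 5-min intervals over 30 min, after 5 min at room temperature. Reactions contain 100 nM EPAC1, 250 nM RAP1B-BODIPY-GDP and 50 uM GDP; results are normalized to ATA and DMSO.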
# Potency is read from the fitted curve at half-maximal effect; tags tell the direction and shape of the fitted curve.
# UniProt O95398, sequence (O95398 whole entry, looked up): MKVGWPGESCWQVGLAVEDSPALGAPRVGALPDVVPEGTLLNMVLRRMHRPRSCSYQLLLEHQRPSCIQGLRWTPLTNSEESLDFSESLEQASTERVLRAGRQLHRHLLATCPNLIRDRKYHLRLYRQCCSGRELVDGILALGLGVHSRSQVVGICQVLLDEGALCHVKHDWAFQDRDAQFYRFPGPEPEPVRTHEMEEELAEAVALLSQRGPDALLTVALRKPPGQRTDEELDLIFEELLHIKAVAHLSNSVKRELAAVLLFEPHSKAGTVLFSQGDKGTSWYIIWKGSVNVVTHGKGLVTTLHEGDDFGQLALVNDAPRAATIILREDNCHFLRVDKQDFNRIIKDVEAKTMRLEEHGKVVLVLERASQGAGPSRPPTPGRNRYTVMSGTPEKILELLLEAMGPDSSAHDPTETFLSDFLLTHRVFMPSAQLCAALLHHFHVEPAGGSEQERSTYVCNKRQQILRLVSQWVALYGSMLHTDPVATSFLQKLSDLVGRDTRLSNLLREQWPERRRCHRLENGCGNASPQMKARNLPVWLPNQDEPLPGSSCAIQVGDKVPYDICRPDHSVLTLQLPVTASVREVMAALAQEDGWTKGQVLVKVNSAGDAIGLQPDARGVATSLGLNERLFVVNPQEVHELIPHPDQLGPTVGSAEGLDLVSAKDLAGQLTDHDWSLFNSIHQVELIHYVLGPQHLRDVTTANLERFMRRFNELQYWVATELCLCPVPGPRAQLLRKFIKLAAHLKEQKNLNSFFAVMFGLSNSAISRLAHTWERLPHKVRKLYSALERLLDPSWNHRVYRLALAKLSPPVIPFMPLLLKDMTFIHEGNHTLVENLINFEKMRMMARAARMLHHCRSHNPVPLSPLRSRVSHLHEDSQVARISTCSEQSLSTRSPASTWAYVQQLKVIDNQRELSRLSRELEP
SMILES,Potency,"activity, negative = inhibition"
COc1ccc(C(CC(=O)c2ccc(C)cc2)C(C#N)C#N)cc1OC (stereo not given),"inconclusive [inhibitor, partial curve]",
O=C(/C=C/c1ccc(Br)o1)NCc1ccccc1,"inconclusive [inhibitor, partial curve]",
C/C(=N\NC(=O)c1cc2ccccc2cc1O)c1ccc(C)o1,"inconclusive [inhibitor, partial curve, poor fit]",
COc1cccc(/C=N/NC(=O)c2cc3cc([N+](=O)[O-])ccc3s2)c1O,active: 35.5 µM,
O=C(CSc1nc2ccsc2c(=O)n1NC(=O)c1ccccc1)Nc1nccs1,"inconclusive [inhibitor, partial curve, poor fit]",
Fc1ccc(-c2nc3ccc(Br)cn3c2Cc2cccc(F)c2)cc1,"inconclusive [inhibitor, partial curve]",
Cc1ccc(C(=O)NN2C(=O)/C(=C/c3cn(C)c4ccccc34)SC2=S)cc1,,inactive: -0.252%
COc1cc(Cl)c(C)cc1NC(=O)CSc1cc(Cl)ccc1Cl,active: 67.5 µM,
O=C(O)c1sccc1SCc1ccc(Cl)c(Cl)c1,"inconclusive [inhibitor, partial curve]",
O=C1C(c2ccccc2)=[N+]([O-])c2ccccc21,,inactive: -16.7%
CS/C(=C\C(=O)c1ccco1)Nc1ccccc1Cl,"inconclusive [inhibitor, full curve, poor fit]",
COc1cc(-c2cc(OC)c3c(C)oc(C)c3c(=O)c2)ccc1OC(=O)c1ccccc1F,"inconclusive [inhibitor, partial curve]",
COc1cccc(S(=O)(=O)Nc2ccc3c(c2)[C@@H]2C[C@@H](CC(=O)NCc4ccc(Cl)cc4)O[C@@H](CO)[C@@H]2O3)c1,"inconclusive [inhibitor, partial curve, poor fit]",
COc1ccc(C(=O)Nc2ccc(-c3cc4ccccc4oc3=O)c(C)c2)cc1OC,,inactive: -28.3%
O=C1NC(=Nc2ccccc2)S/C1=C\C=C\c1ccco1,active: 16.9 µM,
Cc1ccc2nc(-c3ccccc3)c(Cc3ccccc3C(F)(F)F)n2c1,,inactive: -29.1%
CCCCn1c(COc2cccc(OC)c2)nc2ccccc21,"inconclusive [inhibitor, partial curve, poor fit]",
COc1ccc(CCNC(=O)CS(=O)(=O)Cc2nc(-c3ccc(C)cc3)oc2C)cc1OC,"inconclusive [inhibitor, full curve, poor fit]",
Cc1cccc(N2CC(C(=O)Nc3nnc(SCC(=O)NCC4CCCO4)s3)CC2=O)c1 (stereo not given),"inconclusive [inhibitor, partial curve]",
COc1cc(C2CC(=O)Oc3cc(C)c(Br)c(C)c32)cc(OC)c1OC (stereo not given),"inconclusive [inhibitor, partial curve]",

SMILES,Potency,"activity, negative = inhibition"
O=C(NNc1cc(N2CCOCC2)nc(N2CCOCC2)n1)c1ccc([N+](=O)[O-])cc1,"inconclusive [inhibitor, full curve]",
COc1ccccc1C(=O)Nc1ccccc1C(=O)OCc1cc(=O)n2c(C)csc2n1,,inactive: -10.4%
CCOc1ccccc1NC(=O)C1CCN(c2nc(-c3ccc(OC)cc3)no2)CC1,"inconclusive [inhibitor, full curve, poor fit]",
O=C1C(=O)c2cccnc2-c2ncccc21,"inconclusive [inhibitor, full curve]",
CCOC(=O)c1ccc(NC(=S)NNC(=O)C2(C)CC2(Cl)Cl)cc1 (stereo not given),"inconclusive [inhibitor, full curve]",
Cc1ccc(C2c3c(-c4cc(C)ccc4O)n[nH]c3C(=O)N2Cc2ccco2)cc1 (stereo not given),"inconclusive [inhibitor, partial curve]",
Cc1cccc(Cn2c(=O)oc3ccc(C)cc32)c1,"inconclusive [inhibitor, partial curve, poor fit]",
C[C@H](CO)N1C[C@H](C)[C@H](CN(C)Cc2cccc(O)c2)OCc2ccccc2-c2c(n(C)c3ccccc23)C1=O,"inconclusive [inhibitor, partial curve]",
CCCc1nc2ccc(C(=O)OC)cn2c1Cc1ccc(C)cc1,"inconclusive [inhibitor, partial curve, poor fit]",
CN(C)c1ccccc1-c1cc(NC=O)c2ncc(-c3cccc(C(F)(F)F)c3)n2c1,active: 47.8 µM,
Cc1cc(C)c(NC(=O)Cn2c(=O)n(Cc3ccc(C(=O)NCc4ccco4)cc3)c(=O)c3sccc32)c(C)c1,active: 75.7 µM,
Cc1ccc2c(c1)OC(=O)CC2c1ccccc1 (stereo not given),"inconclusive [inhibitor, partial curve, poor fit]",
COCc1nc2ccccc2n1Cc1ccc(C(C)(C)C)cc1,"inconclusive [inhibitor, partial curve]",
COc1ccccc1C1CC(=O)Oc2cc(C)c(Br)c(C)c21 (stereo not given),"inconclusive [inhibitor, partial curve, poor fit]",
Cc1ccc(S(=O)(=O)NC(=O)Cn2nnc(-c3ccccc3)c2COc2ccc3ccccc3c2)cc1,active: 19 µM,
Cc1noc(C)c1S(=O)(=O)Nc1ccc2c(c1)C(=O)N([C@@H](C)CO)C[C@@H](C)[C@@H](CN(C)CC1CCCCC1)OCCCC[C@@H](C)O2,,inactive: -25%
O=C(NCc1ccccc1)C(c1ccccc1)n1c(=O)c(-c2ccco2)nc2ccccc21 (stereo not given),"inconclusive [inhibitor, partial curve]",
CC(C)C(=O)Nc1nc2c(s1)CC(C(C)(C)C)CC2 (stereo not given),"inconclusive [inhibitor, partial curve]",
Clc1cccc(Cl)c1C1Nc2cccc3cccc(c23)N1,,inactive: -21.2%
CCc1nc2c(OCc3ccc(C(F)(F)F)cc3)cccn2c1N(C)C(=O)C(C)C,"inconclusive [inhibitor, partial curve, poor fit]",

# Reference: PubChem BioAssay (NCATS)
